The values below come from the RNAGym collection of RNA variant scans (doi:10.7554/elife.90254).

To fix the notation:
B1: OR4K15 (parent)
chain: GUUAACGGUCAUAGGCCAUGGAAACUAGGAGCACCAUUUCGCUGCCAGUGAAGAAAUGAACAAAGAAAAUCUGGGCCAGGCAGGCAUCAAAAGAAAUAGUCUUGCGCUCAACCAGAAAGUCUGUAAUCAUUUUAAGGGUA

The source gives no read counts; variants with many changes may rest on few reads.

Variants of B1 are the subject of this data set. The data set is described as follows: self-cleavage, relative activity (ratio to wild type); higher = more cleavage; in vitro, sequencing; the parent is a self-cleaving ribozyme.
A30G A60G A68G A89G: the self-cleavage came out at 2.03.
As for A27G U97C A117U, the self-cleavage worked out at 1.28.
Under A27G A67G U100C stands 1.94; under A27U A59G A90G, 0.93; under U26G U43A U103C, 1.32.
Under A30G U131C U132C stands 1.44; under A30G U43C A116U, 0.09; under A27U U49C A52U U57C, 0.42.
Under A27G U70C A114U U127C stands 0.04; under A30G U49G A52U, 1.76.
Regarding U26C U49C A94G U132A, the self-cleavage worked out at 1.55.
Under A30G A95G A110G A117G U124C stands 0.11; under A27G U38C A54G A55U A67G U72C A89G A117G, 0.68; under G29A C46G A54U U108C, 0.
Under A27G A47G A66G stands 0.97.
Under U26C U37C C113U U122C stands 0.02; under A27G G53U A64G U102C A111G, 0.02; under A30G A33G A67U A96U, 1.63.
Turning to A30G A56G A67G A86G A92G U131C, the self-cleavage is 0.63.
Under A27G U37C A90G stands 1.1.
On to A27G A126G A140G, for which the self-cleavage worked out at 1.42.
As for A30G A33G A82G A94G U130C, the self-cleavage is 0.21.
Under U26C A36G A116G stands 0.88; under G28A U38C A60G U102C A110G, 0.2.
On to A27U A55G A126G G136U, for which the self-cleavage stood at 1.9.
Under A30G A59U U72C stands 0.23; under A30G A68G A90U, 1.02.
As to A30G U100C A135U, the self-cleavage was found to be 1.32.
In the case of A27G U103C G104A U108C A129C, the self-cleavage is 0.01.
Under A30G U57A U124C stands 0.75; under A30G U72C A117G A125G, 0.09.
Under A30G A67G U72A stands 0.7; under A30G A36U A98G U108C U127C, 0.01; under A27G C105A A111G A135G, 0.
Under A30G A51G A59G A78G A135G stands 0.21.
As to U26C A51G A54G A55U, the self-cleavage came out at 1.1.
U26C A47G A63U: the self-cleavage turned out to be 0.78.
On to A30G A78U G106U A126G, for which the self-cleavage amounted to 0.01.
Under A27G A60G A95C U100C A125G stands 0.14.
Under A27U C34U A62G A64U A66G U103C stands 0.59; under U26C A67G G84U C128U U132C, 0.29.
A30G A47G U87C A94G: the self-cleavage is 1.45.
Under A27G U102C U131C stands 1.99; under A30G A47G U103C U122C, 0.54.
Under A30G A78G A140G stands 0.11; under A27U A52G A92G A118G, 1.23.
For U26C A67G A96U A111G, the self-cleavage stood at 0.
Under G29A A30U A33G A52U G74C stands 0.24; under U26C A47G A64U A111G, 0.04; under A30G A56G A66G A67G A95G, 2.06.
For the variant A30G A59G U103A, the self-cleavage amounted to 0.57.
For the variant A27G U39C G50A A51G A63G A116G, the self-cleavage was 0.34.
In the case of A30G U37G U38C, the self-cleavage is 0.76.
Under U26C A30U U131C stands 0.91; under U26C A54G A118G, 1.9.
Under A30G U49C A96G A98G stands 0.75; under A30G A54G A56U G80A A114C, 0.02; under A27G A55G U57C, 0.94.
Under U26C A30G A59G stands 0; under A30U A36G U38C A56G U100C, 1.48; under A30G U87C A89G, 0.65.
For A30G U37A A59G, the self-cleavage was found to be 1.57.
Under A30G A62G A118G stands 0.89; under U26C A55G A114G, 0.24.
Under A27G A98G U132G stands 0.85.
Under A27G U49A A96G A126G stands 0.73; under A30G U39A A91G U97A, 0.94; under A27G A33G A52U A60G, 1.18.
With A30G A78G A82G, the self-cleavage was 0.09.
Take A27G A96G A111G C128A U130A G136A: the self-cleavage was 0.
Under A30G A33C U49C A55G A59G C109A U122A G137A stands 0.29; under A30G A64G A98U A134U, 0.52; under A30G U57C U103C, 0.5.
Turning to A30G U57A U120C, the self-cleavage came to 0.94.
Under A30G A56G U122C U132C stands 0.98; under A30G A55C A59G C77U U132C, 1.27.
Under A30G A51G A86G A126G stands 0.98.
Under A30G A47U A55G A94G stands 0.85; under A30G G31A A66U C107G, 0.02.
With A27G A59C A67G U87C, the self-cleavage is 0.75.
Under A27U U37C A95G A116G A118U stands 0.15; under A30G A47G U49C A68U A118G U130C, 0.26.
Under A30C A90G A129G stands 0.14.
